# Assay results taken from the supplement of paper PMC8748497.
# Some of the results follow.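 The calls were made as follows: active = GRHL reporter fold change of at least 2 over DMSO at 10 µM; inactive = below 2-fold.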 Repeats are few or missing, and single values can be far off.
# System: HEK293 GRHL-luciferase reporter
# Experiment: GRHL luciferase reporter activity, fold change over DMSO control; higher = stronger GRHL reporter activation
# Settings: 10 µM; 24 h
# 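Also: stable HEK293 line carrying repeated GRHL consensus sites upstream of a minimal promoter driving luciferase, luminescence read 24 h post-treatment, normalized to 0.5% DMSO vehicle wells.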
row,Compound,GRHL luciferase reporter activity
1,O=C1O[C@H]([C@@H](O)CO)C(O)=C1O,inactive: 0.83
2,O=C(O)Cc1cc(I)c(Oc2ccc(O)c(I)c2)c(I)c1,active: 2.03
3,C=C1c2c(Cl)ccc(O)c2C(O)=C2C(=O)[C@]3(O)C(O)=C(C(N)=O)C(=O)[C@@H](N(C)C)[C@@H]3[C@@H](O)[C@H]12.O=C(O)c1cc(S(=O)(=O)O)ccc1O,inactive: 0.813
4,N=C(N)N1CCc2ccccc2C1,inactive: 0.961
5,OC[C@H]1O[C@@H](Oc2ccc(O)cc2)[C@H](O)[C@@H](O)[C@@H]1O,inactive: 1.06
6,CC(C)CC(NC(=O)OCC1c2ccccc2-c2ccccc21)C(=O)O (stereo in doubt),active: 2.36
7,CC(=O)c1ccc2c(c1)N(CCCN(C)C)c1ccccc1S2,inactive: 1
8,CCOc1cccc(C(=O)c2ccc(O)c(O)c2O)c1,active: 2.29
9,Cn1c(=O)cc(N2CCC[C@@H](N)C2)n(Cc2ccccc2C#N)c1=O,inactive: 1.05
10,O=C(NCc1ccccc1)OCCO,inactive: 1.38
11,CN1CCN(c2c(F)cc3c(=O)c(C(=O)O)cn(CCF)c3c2F)CC1,inactive: 1.2
12,NC[C@@H]1O[C@@H](O[C@H]2[C@H](O)[C@@H](O[C@H]3O[C@H](CO)[C@@H](O)[C@H](N)[C@H]3O)[C@H](N)C[C@@H]2N)[C@@H](O)[C@H](O)[C@H]1O,inactive: 0.884
13,CN1CCN2c3ncccc3Cc3ccccc3C2C1 (centres undefined),inactive: 1.22
14,COc1cc2nc(N3CCN(C(=O)C4CCCO4)CC3)nc(N)c2cc1OC (centres undefined),inactive: 1.02
15,CCc1cc(Cl)c(OC)c(C(=O)NC[C@@H]2CCCN2CC)c1O,inactive: 0.78
16,CO[C@@]1(NC(=O)C(C(=O)O)c2ccc(O)cc2)C(=O)N2C(C(=O)O)=C(CSc3nnnn3C)CO[C@@H]21 (some centres undefined),inactive: 1.01
17,CC1(C)S[C@@H]2[C@H](NC(=O)Cc3ccccc3)C(=O)N2[C@H]1C(=O)O,inactive: 0.973
18,C1CNCCN1,inactive: 1.16
19,O=C1c2ccccc2C(=O)C1c1ccc(Br)cc1,active: 2.24
20,CO/N=C(\C(=O)N[C@@H]1C(=O)N2C(C(=O)OCOC(=O)C(C)(C)C)=C(/C=C\c3scnc3C)CS[C@H]12)c1csc(N)n1,inactive: 1.29

row,Compound,GRHL luciferase reporter activity
1,CC1(C)C=Cc2cc3ccc(=O)oc3cc2O1,active: 5.21
2,CC(=O)N[C@@H](CS)C(=O)O,inactive: 1.01
3,Cc1cc2nc3ccc(=[N+](C)C)cc-3sc2cc1N,inactive: 0.0509
4,CC/C=C\C/C=C\C/C=C\C/C=C\C/C=C\C/C=C\CCC(=O)O,inactive: 1.16
5,CC(=O)O[C@H]1C[C@@]2(C)[C@@H](C[C@@H](O)[C@H]3[C@@]4(C)CC[C@@H](O)[C@@H](C)[C@@H]4CC[C@@]32C)/C1=C(\CCC=C(C)C)C(=O)O,inactive: 0.823
6,C[C@@H]1C[C@H]2[C@@H]3CCC4=CC(=O)C=C[C@]4(C)[C@@]3(F)[C@@H](O)C[C@]2(C)[C@@]1(O)C(=O)CO,inactive: 1.18
7,CCc1c2c(nc3ccc(OC(=O)N4CCC(N5CCCCC5)CC4)cc13)-c1cc3c(c(=O)n1C2)COC(=O)[C@]3(O)CC,inactive: 1.82
8,COc1ccccc1OCC(O)COC(N)=O (centres undefined),inactive: 0.994
9,CC1=CC(=O)C2=C(C)CC[C@@H]3[C@H](OC(=O)[C@H]3C)[C@@H]12,inactive: 0.044
10,N=C(N)NC(=O)Cc1c(Cl)cccc1Cl,inactive: 1.14
11,CC(C)[C@H](N)C(=O)O,inactive: 0.855
12,Cc1cc(O)c(C=O)c(O)c1C(=O)O,inactive: 0.881
13,COc1ccccc1O,inactive: 1.12
14,C=C1C2CC[C@@]3(C)[C@H](c4ccoc4)OC(=O)C[C@]13O[C@H]1CC(O)C(C)(C)C(CC(=O)OC)[C@@]21C (stereo partly drawn) [3alpha-HYDROXY-3-DEOXYANGOLENSIC ACID METHYL ESTER],inactive: 1
15,CCC(C)(C)C(=O)O[C@H]1C[C@@H](C)C=C2C=C[C@H](C)[C@H](CC[C@@H]3C[C@@H](O)CC(=O)O3)[C@H]21,inactive: 0.824
16,CN1CCC(=C2c3ccccc3C=Cc3ccccc32)CC1,inactive: 0.931
17,CCCCC(CC)CN1CN(CC(CC)CCCC)CC(C)(N)C1 (centres undefined),inactive: -0.0125
18,CC(C)CCC[C@@H](C)[C@H]1CC[C@H]2[C@@H]3CC(=O)[C@H]4C[C@@H](O)CC[C@]4(C)[C@H]3CC[C@]12C [5alpha-CHOLESTAN-3beta-OL-6-ONE],inactive: 1.19
19,COc1ccc(C2CNC(=O)C2)cc1OC1CCCC1 (centres undefined),inactive: 1.11
